Consider 36 compounds from the supplement of paper PMC4723716.

For this experiment, the system named is Plasmodium falciparum NF54 stage V gametocytes. The experiment is described as follows: viability index relative to DMSO control (fraction); higher = less gametocyte killing. To be noted: 2.5 µM, incubation time: 72 h. The essentials:
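In 1,536-well plates, 10 µl of serum-free medium holding P. falciparum NF54 stage V gametocytes (0.75% gametocytemia, 1.25% hematocrit) received compound at 2.5 µM for 72 hr at 37°C in low oxygen. After one to two hours with 3 µl of 2.5 µM MitoTracker Red CMXRos containing 0.13% saponin, red particles of 20–70 µm2 were counted in a single field per well. Viability index is reported as the particle count over the plate mean of wells treated with solvent only.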

Setting [1] is: library set: Broad Institute DOS.

± gives the uncertainty stated by the source. Over roughly 9,900 compounds, “viability index relative to DMSO control” has its median near 1; the lowest 2% begin near 0.85. The list shows a part of the results.

As for `O=C(Cc1ccccn1)N1CC2(C1)[C@H](c1ccccc1)[C@@H](CO)N2C(=O)c1ccncc1`, the viability index under setting [1] was 1.09 ± 0.026. For the compound `C[C@@H]1CN([C@@H](C)CO)C(=O)c2c(c3ccccc3n2C)-c2ccccc2CO[C@H]1CN(C)Cc1cccc(C(=O)Nc2ccccc2N)c1`, under setting [1], the viability index is 0.969 ± 0.056. In turn, `CN1c2ccc(C#Cc3cccnc3)cc2[C@@H]2[C@@H](CCN2C(=O)CN2CCOCC2)[C@H]1CO` yielded a viability index under setting [1] of 1.2 ± 0.032.

The compound `COc1cccc(C#Cc2ccc([C@H]3[C@@H](CO)N4C(=O)CN(C(=O)Cc5cccnc5)C[C@H]34)cc2)c1` gave a viability index under setting [1] of 0.804 ± 0.11. The same measure, in the same setting: the value for `Cc1noc(C)c1NC(=O)N[C@H]1C=C[C@H](CC(=O)Nc2ccc(-c3ccccc3)cc2)O[C@H]1CO` was 1.0744 ± 0.00039.

For the compound `C[C@@H](NC(=O)[C@H]1[C@H](CO)[C@H]2Cn3c(cccc3=O)[C@H]2N1CCC(F)(F)F)c1ccccc1`, the viability index under setting [1] came out at 1.01 ± 0.065.

`O=C(CN1CCOCC1)N[C@H]1CC[C@@H](CCn2cc(C3CC3)nn2)O[C@H]1CO` came in with a viability index under setting [1] of 1.14 ± 0.11.

The compound `Cc1ccccc1-c1ccc([C@@H]2[C@@H]3CN(Cc4cocn4)C[C@H]2N3)cc1` had a viability index under setting [1] of 0.949 ± 0.05. As for `C[C@@H]1CN([C@H](C)CO)C(=O)CCCn2nncc2CO[C@H]1CN(C)C(=O)Nc1cccc(Oc2ccccn2)c1`, under setting [1], the viability index came out at 1.03 ± 0.1.

For the compound `COCCNC(=O)C[C@@H]1CC[C@H]2[C@@H](COC[C@@H](O)CN2Cc2ccc(Cl)c(Cl)c2)O1`, the viability index under setting [1] was 1.02 ± 0.014. The compound `Cc1ccc(S(=O)(=O)N[C@@H]2C=C[C@@H](CC(=O)NCc3ccc(Cl)c(Cl)c3)O[C@H]2CO)cc1` had a viability index under setting [1] of 1.03 ± 0.1. For the compound `CCCC(=O)Nc1ccc2c(c1)C(=O)N(C)[C@@H]1CC[C@@H](CC(=O)NCc3cccc(F)c3)O[C@@H]1CO2`, under setting [1], the viability index is 1.03 ± 0.056. The same measure, in the same setting: the result for `CC(C)[C@@H]1C/C=C/C[C@H](C)Oc2ccccc2C(=O)N(C)[C@@H](C(C)C)C(=O)N1.CC(C)[C@@H]1C/C=C\C[C@H](C)Oc2ccccc2C(=O)N(C)[C@@H](C(C)C)C(=O)N1` reads 1.05 ± 0.099; that for `C/C=C/c1cccc(-c2nc(C(=O)NCc3ccccn3)cc3c2[C@H](CCO)N([S@@](=O)C(C)(C)C)C3)c1`, 1 ± 0.04.

As for `O=C(CCN1CCCCC1)N[C@H]1CC[C@@H](CCn2cc(-c3cccc(F)c3)nn2)O[C@H]1CO`, the viability index under setting [1] amounted to 1.07 ± 0.038. The same measure, in the same setting: the result for `N#C[C@@H]1[C@H](c2ccccc2)[C@H](CO)N1C(=O)c1cc(Cl)cc(Cl)c1` reads 1.07 ± 0.089; that for `O=C(C[C@@H]1C=C[C@@H](NS(=O)(=O)c2ccc(F)cc2)[C@H](CO)O1)N1CCc2ccccc2C1`, 1.03 ± 0.094. Consider `CN1C(=O)c2cc(NC(=O)C3CCOCC3)ccc2OC[C@H]2O[C@H](CC(=O)NCCc3ccncc3)CC[C@H]21`, for which the viability index under setting [1] came out at 1.06 ± 0.066.

As to `COc1ccc2c3c([nH]c2c1)[C@H](CO)NC[C@]31CCN(CC1)C(=O)c1ccccc1`, under setting [1], the viability index is 0.97 ± 0.13. Turning to `COC(=O)C[C@H]1CC[C@@H]2[C@@H](COc3ccc(NC(=O)c4ccc(C(F)(F)F)cc4)cc3C(=O)N2C)O1`, the viability index under setting [1] turned out to be 1.053 ± 0.0064. In turn, `C[C@@H]1CN([C@H](C)CO)C(=O)c2c(c3ccccc3n2C)-c2ccccc2CO[C@@H]1CN(C)C(=O)NC1CCCCC1` returned a viability index under setting [1] of 1.02 ± 0.087. The compound `O=S(=O)(c1ccccc1)N1CCCCN2[C@H](C1)[C@H](c1ccc(C#CC3CCCC3)cc1)[C@@H]2CO` gave a viability index under setting [1] of 1.03 ± 0.031. Compound `COc1cccc(CNC(=O)C[C@@H]2CC[C@H]3[C@H](COc4ccc(NC(=O)c5cccs5)cc4C(=O)N3C)O2)c1` gave a viability index under setting [1] of 0.93 ± 0.013. `COc1ccc2c3c([nH]c2c1)[C@H](CO)N(C)C[C@]31CCN(CC1)C(=O)CN(C)C` showed a viability index under setting [1] of 0.919 ± 0.017. Same read-out and setting: the result for `CN1C(=O)c2cc(NC(=O)Nc3ccccc3F)ccc2OC[C@H]2O[C@@H](CC(=O)NCCc3ccncc3)CC[C@@H]21` reads 0.976 ± 0.11; that for `COCC(=O)N1C[C@]2(CCN(CC2)C(=O)c2cccnc2)c2c([nH]c3cc(OC)ccc23)[C@@H]1CO`, 0.958 ± 0.054.

Regarding `CO[C@H](CN(C)S(=O)(=O)c1ccc(C)cc1)[C@H](C)CN([C@H](C)CO)S(=O)(=O)c1cccc(Cl)c1`, under setting [1], the viability index amounted to 0.9977 ± 0.0033. Same read-out and setting: the result for `CCN(C[C@H]1[C@H](c2ccccc2)[C@H](CO)N1C(C)=O)C(=O)NC1CCCC1` reads 0.961 ± 0.015. Under setting [1], `Cc1noc(C)c1NC(=O)N(C)C[C@H]1OCc2cnnn2CCCC(=O)N([C@H](C)CO)C[C@@H]1C` gave a viability index of 1.04 ± 0.026. Under “library set: Broad Institute Blood Stage”, `O=C(C1CC1)N1C[C@@H]2N[C@H](C1)[C@@H]2c1ccc(-c2ccccc2F)cc1` showed a viability index of 0.988 ± 0.046. Under setting [1], `C/C=C/c1cnc2c(c1)C(=O)N([C@H](C)CO)C[C@@H](C)[C@@H](CN(C)C(=O)Nc1cccc(OC)c1)O2` returned a viability index of 1.01 ± 0.018. With `O=C([C@H]1N[C@H]2c3ccc(/C=C/c4ccccc4)c(=O)n3C[C@H]2[C@@H]1CO)N1CCCCC1`, the viability index under setting [1] is 0.992 ± 0.14. In the case of `O=C(NC1CCCC1)N1CCCCN2[C@H](CO)[C@@H](c3ccc(-c4cccnc4)cc3)[C@H]2C1`, the viability index under setting [1] turned out to be 0.99 ± 0.035. With `C[C@@H](NC(=O)C[C@H]1CC[C@@H]2[C@@H](COc3ccc(NC(=O)C4CCOCC4)cc3C(=O)N2C)O1)c1ccccc1`, the viability index under setting [1] came to 1.16 ± 0.019.

Under setting [1], `CCC(=O)N1[C@@H](CO)[C@@H]2c3ccccc3N(C(=O)c3cnccn3)C[C@@H]21` showed a viability index of 1.01 ± 0.013. In turn, `OC[C@@H]1Nc2ccc(-c3cccc(F)c3)cc2[C@H]2[C@@H]1CCN2Cc1ccc(F)cc1` had a viability index under setting [1] of 1.05 ± 0.045.
